Data reported in PubChem BioAssay AID1347073 (National Center for Advancing Translational Sciences (NCATS), 2019).
About 200 (0.44%) of roughly 45,000 compounds were called active. Another 7% or so got no clear call; they are omitted. Calls come from the whole dose curve; as a rule, active = well fitted activation curve with a large enough effect; inconclusive = small, poorly fitted or top-dose-only effect; inactive = no such curve, though single readings can be large or run the other way. This is one part of the list.

Experiment: qHTS of TDP-43 Inhibitors: NCGC Sytravon Library Screen; note: 0% is about no effect; nearly all actives have a fitted effect of over 55% in size
Settings: yeast TDP-43 toxicity rescue, BacTiter-Glo growth, 24 h; series mostly up to 46.1 µM; growth rescue (activation): at the top concentration
Procedure, shortened: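 TDP-43-expressing yeast, pregrown in raffinose, seeded at OD600 0.02 in galactose medium with compound for 24 hr at 30 deg C. Growth read by BacTiter-Glo luminescence, so rescue of toxicity appears as activation.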

| Structure (SMILES) | growth rescue (activation) |
| --- | --- |
| CC(=O)n1cc(N(C(=O)CCl)c2ccccc2)c2ccccc21 | inactive: 3.9% |
| Cc1onc(-c2ccccc2Cl)c1C(=O)NC(=S)NCc1cccnc1 | inactive: 5.01% |
| COc1cccc(/C(O)=C/c2nc3ccc(C(=O)NCCc4ccc(Cl)cc4)cc3[nH]c2=O)c1 | inactive: 17.3% |
| CCOc1ccc(NS(=O)(=O)c2ccc(NC(=O)c3cccnc3)c(OC)c2)cc1 | inactive: 1.19% |
| CCOc1ccc(CN2CCN(Cc3ccc4c(c3)c3ccccc3n4CC)CC2)cc1 | inactive: 5.17% |
| Cn1c(=NC(=O)C2CCCCC2)sc2cc([N+](=O)[O-])ccc21 | inactive: -0.831% |
| Cc1cccc(NC(=O)CN2CCN(C(=O)c3cnn(Cc4ccccc4)c3)CC2)c1C | inactive: 13.3% |
| Cc1ccc(C2C(C#N)=C(N)OC3=C2C(=O)CCC3)s1 (stereo not drawn) | inactive: 4.15% |
| Cc1cc(NC(=O)CC(F)(F)F)n(-c2ccccc2)n1 | inactive: -2.16% |
| COc1ccc2c(COC(=O)[C@H](C)NS(=O)(=O)c3ccccc3F)cc(=O)oc2c1 | inactive: 5.68% |
| Cc1cccc(C)c1NC(=O)NC1(C(=O)N2CCN3CCCC3C2)CCCCC1 (stereo not drawn) | inactive: 3.43% |
| Cc1cc(C)nc(N/N=C/c2c(CO)cnc(C)c2O)n1 | inactive: 15% |
| COc1ccc(-n2nc(C(=O)NCC(=O)N3CCN(c4ccccc4F)CC3)c3ccccc3c2=O)cc1 | inactive: -9.63% |
| COc1cc(C(=O)Oc2cccc(/C=N/NC(=O)c3cc(C)[nH]n3)c2)cc(OC)c1OC | inactive: 2.54% |
| Cc1ccc2cc(COC(=O)c3ccco3)c(=O)[nH]c2c1 | inactive: 5.18% |
| COc1cccc(/C=N/N2CCOCC2)c1O | inactive: -8.53% |
| CN(CC(=O)Nc1ccc(F)c(F)c1F)C(=O)/C=C/c1ccc(Cl)cc1 | inactive: 4.06% |
| Cc1ccc(NC(=O)c2oc3ccc(S(=O)(=O)N4CCOCC4)cc3c2C)c(C)c1 | inactive: -0.0153% |
| CC(=O)NCCC(=O)N1CCCC(C(=O)c2ccc3c4c(cccc24)CC3)C1 (stereo not drawn) | inactive: 0.344% |
| O=C(/C=C/Nc1ccccc1O)c1ccco1 | inactive: -19.7% |
| CCCN(CCC)c1nc(-c2ccccn2)nc2ccccc12 | inactive: 12.2% |
| Cc1ccc(NC(=O)c2c(-c3ccccc3Cl)noc2C)nc1 | inactive: 11.1% |
| COC(=O)C1CCN(CC(=O)NC(=O)NC2CCCCC2)CC1 | inactive: 5.77% |
| CN(Cc1cnn(C)c1)C(=O)CC1C(=O)NCCN1Cc1cccc(Oc2ccccc2)c1 (stereo not drawn) | inactive: -5.36% |
| Cc1cc(C)n(CCNc2nc3nonc3nc2N2CCCCC2)n1 | inactive: -1.56% |
| CCn1c(SCC(=O)N/N=C/c2ccc(C)o2)nnc1-c1ccc(C(C)(C)C)cc1 | inactive: -4.54% |
| COCCNC(=O)C1CCCN(C(=O)c2cncc(Br)c2)CC1 (stereo not drawn) | inactive: -5.58% |

| Structure (SMILES) | growth rescue (activation) |
| --- | --- |
| NC(=O)Cn1c(=O)n(CCCCCC(=O)NCc2ccc3c(c2)OCO3)c(=O)c2sccc21 | inactive: 2.13% |
| O=S(=O)(Nc1nc2ccccc2nc1-[n+]1ccccc1)c1ccc(Cl)cc1 | inactive: 10.8% |
| COc1cc(CN2CCN(Cc3ccc(C)cc3)CC2)c([N+](=O)[O-])cc1OC | inactive: -5.42% |
| COc1ccc2nc(SCC(=O)Nc3ccccc3C#N)[nH]c2c1 | inactive: -0.313% |
| CSCCC(NC(N)=O)C(=O)Nc1cccc(C#N)c1 (stereo not drawn) | inactive: -0.217% |
| CS(=O)(=O)N(CC(=O)NCCSCc1c(F)cccc1Cl)c1ccc2c(c1)OCO2 | inactive: 19.8% |
| Cc1cc(NS(=O)(=O)c2ccc(NC(=O)Nc3cccc(C(F)(F)F)c3)cc2)no1 | inactive: -5.91% |
| CCOC(=O)Cc1ccc(NC(=O)c2ccc([N+](=O)[O-])cc2)cc1 | inactive: 5.99% |
| COCCNc1nc(NCCN2CCNC2=O)c2sc(-c3ccccc3)cc2n1 | inactive: 0.347% |
| Cc1ccccc1/C=N/NC(=O)CSc1nc2ccccc2o1 | inactive: 9.53% |
| COc1ccccc1/C=C1\SC(=S)N(CCC(=O)Nc2ccc(C(=O)O)c(O)c2)C1=O | inactive: 7.33% |
| c1ccc(-n2c(SCC3CCCCO3)nnc2-c2cnccn2)cc1 (stereo not drawn) | inactive: 1.22% |
| Cc1ccccc1C(=O)Nc1nnc(-c2ccco2)s1 | inactive: 7.24% |
| CCc1cccc(NC(=O)C2CCN(S(=O)(=O)c3c(C)noc3C)CC2)c1 | inactive: 9.01% |
| O=C(NC1CCCC1)c1cc(-c2ccc(F)cc2)on1 | inactive: 30.4% |
| CSc1ccc(C(O)c2ncc(-c3cccc(F)c3)[nH]2)cc1 (stereo not drawn) | inactive: 7.99% |
| CC(C)C(C)NC(=O)CN1C(=O)NC(c2ccccc2)(c2ccccc2)C1=O (stereo not drawn) | inactive: 6.91% |
| O=C(Nc1ccc(Cl)c(Cl)c1)Nc1cc(S(=O)(=O)N2CCOCC2)ccc1N1CCCC1 | inactive: -21.1% |
| CCOC(=O)N/N=C(/C)c1ccc(N2C(=O)C3CCCCC3C2=O)cc1 (stereo not drawn) | inactive: 10.3% |
| O=C(CNC1CCCCCC1)c1cccs1 | inactive: 1.94% |
| CCOC(CNC(=O)Cn1nc(Cc2ccncc2)c2ccccc2c1=O)OCC | inactive: 3.63% |
| O=C1CC(=O)N(c2cccc(F)c2)N1 | inactive: -17.3% |
| CC(=O)N1CCN(c2ccc(NC(=O)c3cccc(Cl)c3)cc2)CC1 | inactive: -3.93% |
| COc1c(C)cc(C(=O)C2CCCN(C(=O)/C=C/c3ccccn3)C2)cc1C (stereo not drawn) | inactive: 12.1% |
| CCN1CCN(C(=O)C2CCCN(S(=O)(=O)c3cc(Cl)ccc3Cl)C2)CC1 (stereo not drawn) | inactive: 0.019% |
| CCC(C)NC(=O)C(NS(=O)(=O)c1cccc2nsnc12)c1ccccc1 (stereo not drawn) | inactive: 14.5% |
